According to PubChem BioAssay AID1347417 (National Center for Advancing Translational Sciences (NCATS), 2020):
In all, about 120,000 compounds went through this assay and about 5,300 (4.4%) were called active. This list was built around the results that the source calls inconclusive (neither active nor inactive); the mix of calls is not that of the screen. Calls come from the whole dose curve; as a rule, active = well fitted inhibition curve with a large enough effect; inconclusive = small, poorly fitted or top-dose-only effect; inactive = no such curve, though single readings can be large or run the other way. Potencies of inconclusive entries are doubtful fits and often do not repeat.

Test: qHTS Primary assay for Inhibitors of Plasmodium falciparum Dd2 growth in vitro; note: nearly all actives have a fitted effect of over 65% in size
Details: P. falciparum Dd2 growth, SYBR Green, 72 h; series mostly up to 28.9 µM
Method in brief: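 Infected erythrocytes (Dd2, 0.3% parasitemia, 2.5% hematocrit final) are added to compound in RPMI-1640/Albumax II medium, grown 72 h at 37C in low oxygen, then lysed with saponin/Triton-X containing SYBR Green and read by fluorescence.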
Potency is the fitted concentration of half-maximal effect; tags give direction and shape of the fitted curve.

| Compound | Potency |
| --- | --- |
| CCOc1ccc(-c2nnc(SCC(=O)NC3CCCCC3)nc2-c2ccc(OCC)c(OC)c2)cc1OC | inconclusive: 17.8 µM [inhibitor, single point] |
| CCN1C(=O)c2ccccc2S(=O)(=O)c2ccc(C(=O)NCc3ccc(C)cc3)cc21 | inconclusive: 17.8 µM [inhibitor, single point] |
| CCc1nc(-c2c3n(c(=O)n(CC(=O)Nc4ccc(C)c(C)c4)c2=O)CCCC3)no1 | inconclusive: 17.8 µM [inhibitor, single point] |
| CCN(Cc1ccccc1)C(=O)Cn1c(=O)cc(C)c2c(C)nn(-c3cccc(F)c3)c21 | inconclusive: 11.2 µM [inhibitor, partial curve] |
| COc1cccc(-c2ncc3c(n2)OCCN(Cc2ccc(F)cc2F)C3=O)c1OC | inconclusive: 11.2 µM [inhibitor, single point] |
| CC#CCn1cc2c3c(cccc31)[C@H](CC(C)C)N[C@H](C(=O)NCCOC)C2 | inconclusive: 10 µM [inhibitor, partial curve, poor fit] |
| C[C@@H]1CCC[C@H](C)N1CC(=O)N1CCn2nc(Cc3ccccc3)cc2C1 | active: 11.2 µM |
| CCN(CC)c1ccc2nc3c(=O)n(C)c(=O)n(C)c3nc2c1 | inactive |
| Cc1ccc2c(c1)N(C(=O)c1ccc(F)cc1)C(C)(C)CC2(C)c1ccccc1 (stereo not drawn) | inconclusive: 14.1 µM [inhibitor, single point] |
| O=C(CC1=C2CCCCC2N(Cc2ccccc2)C1=O)NCCc1c[nH]c2ccccc12 (stereo not drawn) | inconclusive: 7.94 µM [inhibitor, partial curve, poor fit] |
| C=CCC1(CO)CCCN(C(=O)c2cccc(N3CCNC3=O)c2)C1 (stereo not drawn) | inconclusive: 8.91 µM [inhibitor, partial curve, poor fit] |
| CCc1ccccc1N1C(=O)N(Cc2cc(=O)n3ccccc3n2)c2ccccc2S1(=O)=O | inconclusive: 11.2 µM [inhibitor, single point] |
| O=C1Nc2ccccc2O[C@H]2C[C@@H]1N(C(=O)Cc1ccccc1)C2 | inconclusive: 5.62 µM [inhibitor, single point] |
| C[C@]1(CO)C2CC[C@@H](O)[C@@H](CC(=O)N3CCOCC3)[C@]2(C)CC[C@H]1OC(=O)Nc1ccccc1 (stereo partly drawn) | inconclusive: 20 µM [inhibitor, single point] |
| CCc1ccc2nc(N(Cc3cccnc3)C(=O)Cc3ccccc3)sc2c1 | inconclusive: 3.16 µM [inhibitor, single point] |
| Cc1noc(CC2CCN(C(=O)C(C)Oc3ccc4ccccc4c3)CC2)n1 (stereo not drawn) | inactive |
| COc1ccc(Cc2c(C)nn(-c3nc(C)c(C(=O)Nc4cccc(C(C)=O)c4)s3)c2C)cc1 | inconclusive: 8.91 µM [inhibitor, single point] |
| CCS(=O)(=O)c1nc(S(=O)(=O)c2ccc(Cl)cc2)c(NCc2ccc(Cl)cc2)s1 | inconclusive: 17.8 µM [inhibitor, single point] |
| Cn1c(=O)c2c(-c3ccccc3)n(-c3cccc(C#N)c3)cc2n(C)c1=O | inconclusive: 10 µM [inhibitor, single point] |
| O=C(C1CCCC1)N1CCC(CCOc2ccccc2F)C1 (stereo not drawn) | inactive |
| Cc1cc(C)cc(Nc2nc(C)cc(=O)n2CC(=O)Nc2cccc(C(F)(F)F)c2)c1 | inconclusive: 1.58 µM [inhibitor, partial curve, poor fit] |

| Compound | Potency |
| --- | --- |
| COc1ccc(CN2C[C@@H]3C(=O)N(Cc4ccc5c(c4)OCO5)C(=O)[C@@H]3C2)c(OC)c1 | inactive |
| c1ccc(Nc2cc3c(cn2)CN(CC2CC2)CCN3)cc1 | active: 12.6 µM |
| O=C(CCc1ccccc1F)NC1CCCN(C2CCCCCC2)C1 (stereo not drawn) | inconclusive: 7.94 µM [inhibitor, partial curve] |
| O=C(Nc1cccc(F)c1)c1cnc2c(c1)N([S+](=O)([O-])c1cccnc1)CCC2 | inconclusive: 31.6 µM [inhibitor, single point] |
| Cc1ccc(NC(=O)Cn2cc(S(=O)(=O)Cc3ccccc3)c3ccccc32)cc1C | inactive |
| CCn1ncc(C(=O)N2CCCCCCNC(=O)CC2)c1C | inactive |
| COc1cc2[nH]c(=O)n(CCCC(=O)N(C)Cc3ccccc3)c(=O)c2cc1OC | inconclusive: 4.47 µM [inhibitor, partial curve] |
| COC[C@@H]1CN(c2cnccn2)C[C@H]1C(=O)NCc1c(C)n[nH]c1C | inactive |
| CC(C)n1c(CN2CCC3(CCCN(C)C3=O)C2)nc2ccccc21 (stereo not drawn) | inconclusive: 11.2 µM [inhibitor, partial curve, poor fit] |
| CC1(C)[C@H]2CC[C@@H](CNC(=O)N3CCCC3)[C@@H]1C2 | inconclusive: 11.2 µM [inhibitor, partial curve] |
| O=C(CCC[C@@H]1[C@H]2CCCN3CCC[C@@H](CN1C(=O)c1cc(F)cc(F)c1)[C@@H]23)NCC1CC1 | inconclusive: 17.8 µM [inhibitor, single point] |
| O=C1CCC2(CCN1Cc1ccccc1)CCN(S(=O)(=O)c1cccs1)CC2 | inactive |
| CCOC(=O)c1ccc(N2C(=O)c3n[nH]c(C)c3C2c2ccc(CC)cc2)cc1 (stereo not drawn) | inconclusive: 17.8 µM [inhibitor, single point] |
| COc1ccc(C(C)C)cc1S(=O)(=O)NCCc1c(C)[nH]c2c(Cl)cccc12 | inconclusive: 15.8 µM [inhibitor, single point] |
| COc1ccc(-c2nc3c(c(=O)[nH]2)CCN(C(=O)c2ccccc2)C3)cc1 | inactive |
| O=C(O)c1ccc(CN2Cc3[nH]cnc3C[C@H]2c2nc(-c3ccc(F)c(Cl)c3)no2)cc1 | inconclusive: 14.1 µM [inhibitor, partial curve, poor fit] |
| COc1cccc(N2CC(C(=O)N3CCC(C(=O)NCc4cccc(F)c4)C3)NC2=O)c1 (stereo not drawn) | inconclusive: 3.98 µM [inhibitor, single point] |
| CC(C)c1ccc(NC(=O)c2cc(S(=O)(=O)NCCc3ccccc3)ccc2F)cc1 | inconclusive: 20 µM [inhibitor, single point] |
| CC(C)CNC(=O)N1CCC(OC2CCN(S(C)(=O)=O)CC2)CC1 | inactive |
| COc1cccc(CCC(=O)N2CCCN(S(C)(=O)=O)c3ccccc32)c1 | inconclusive: 17.8 µM [inhibitor, single point] |
| COc1ccc(CCC(=O)Nc2cccc(-c3nnc4n3CCCC4)c2)cc1 | active: 7.94 µM |

| Compound | Potency |
| --- | --- |
| O=C1CCCCC(C(=O)NCc2ccc(Cl)cc2)N1 (stereo not drawn) | inactive |
| Cc1cc2c(c(=O)n(-c3ccccc3)c(=O)n2CC(=O)Nc2cccc(C#N)c2)n1C | inconclusive: 17.8 µM [inhibitor, single point] |
| CN(C)C[C@H]1C[C@@H](CO)CN(C(=O)CCc2ccncc2)C1 | inactive |
| COc1ccc(NC(=O)CN2C(=O)C(c3ccccc3)=NC23CCC(C)CC3)cc1Cl (stereo not drawn) | inconclusive: 17.8 µM [inhibitor, single point] |
| COCc1nc(C2CCN(C(=O)c3ccco3)C2)no1 (stereo not drawn) | inactive |
| COc1cc(F)ccc1-c1cn(C)c(=O)n2cc(CN3CCOCC3)nc12 | inactive |
| Cc1noc(C)c1[S+](=O)([O-])N1CCn2c(nn(-c3ccc(C(F)(F)F)cc3)c2=O)C1 | inconclusive: 5.01 µM [inhibitor, partial curve] |
| CC(C)CC(=O)NC[C@@H]1C[C@H](F)CN1C(=O)c1cn(CCN)nn1 | inactive |
| CCNC(=O)N1CCC(OC2CCN(Cc3ccccc3)CC2)CC1 | inconclusive: 2.24 µM [inhibitor, partial curve] |
| Cc1ccc(S(=O)(=O)c2nnn3c2nc(NC2CCCCC2)c2sccc23)cc1C | inconclusive: 10 µM [inhibitor, single point] |
| COc1ccc(C(=O)N2CCC(c3nn(-c4ccc(OC)cc4)c(=O)[nH]3)CC2)cc1 | inconclusive: 11.2 µM [inhibitor, single point] |
| O=C1[C@@H]2C[C@@H](CN2Cc2cnc3ccccc3c2)Oc2ccccc2N1CC1CC1 | inconclusive: 11.2 µM [inhibitor, single point] |
| CC(=O)Oc1c(-c2ccc(NC(=O)c3ccco3)cc2)c(-c2cccc(F)c2)nn1-c1ccc(C)cc1 | inconclusive: 2.51 µM [inhibitor, single point] |
| COc1ccc(CN2Cc3[nH]nc(-c4ccc(N5CCN(C)CC5)cc4)c3CC2=O)cc1 | inconclusive: 28.2 µM [inhibitor, single point] |
| CCC[C@@H]1CN(CCC(=O)NCc2cccc(Cl)c2)C[C@H]1C(=O)O | inactive |
| Cc1ccc(NC(=O)c2nc(S(C)(=O)=O)ncc2N(Cc2ccco2)Cc2ccco2)cc1 | inconclusive: 11.2 µM [inhibitor, single point] |
| COc1ccc(OC)c(NC(=O)N2CCC3(CC2)Oc2ccccc2C(=O)N3Cc2ccccc2F)c1 | inconclusive: 8.91 µM [inhibitor, single point] |
| COc1ccc(-c2noc(CC(=O)N(C)c3cc(Cl)c(OC)cc3OC)n2)cc1 | inconclusive: 10 µM [inhibitor, single point] |
| O=C(NCc1cccnc1)c1nc(-c2ccc(Cl)cc2Cl)c2ccccn12 | inconclusive: 11.2 µM [inhibitor, partial curve, poor fit] |
| COCCOc1ccc2c(n1)CCN(C(=O)c1ccc(C(C)C)cc1)C2 | inconclusive: 8.91 µM [inhibitor, single point] |
| CCc1nc2c(c(-c3ccc(Cl)cc3)n1)CCN(Cc1ccsc1)CC2 | inconclusive: 12.6 µM [inhibitor, partial curve] |
